# Inconclusive results, whose numbers are uncertain, are shown with a selection of clear calls. For some assays here: Where the call is inconclusive, the potency comes from a doubtful curve fit. Calls of active or inactive are those of the source. Unless noted, the call rests on the fitted dose curve; in most records, active means well fitted curve in the direction sought with a large enough effect; inconclusive means small, poorly fitted or top-dose-only effect, or another doubt; inactive means no such curve, though single readings can be large; an effect the other way counts as inactive or inconclusive.
# Key:
# NIH3T3 = assay: Cytotoxic Profiling of Annotated Libraries Using Quantitative High-Throughput Screening (AID 1296008); conditions: Five cell lines viability, CellTiter-Glo ATP luminescence, 48-72 h; max response: hits give low values; further: nearly all actives have a fitted effect of over 60% in size; further: potency means the concentration at half of the fitted maximal effect; on max response: on the % scale 0 is the no-effect control and ±100 the full control effect
# In short: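 Compounds were pin-transferred onto cells and incubated 48 or 72 hr at 37 degree Celsius, 95% humidity. CellTiter-Glo was added, plates sat 10 min at room temperature, then ATP-coupled luminescence was imaged as the viability read-out.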
# PA-1 = assay: Primary qHTS to identify gynecologic anti-cancer compounds using libraries of approved drugs and bioactive compounds (AID 1345084); conditions: Gynecologic cancer cell panel viability, ATPlite luminescence, 48 h; series mostly up to 57.5 µM; further: nearly all actives have a fitted effect of over 55% in size; further: potency means the concentration at half of the fitted maximal effect; on activity change, negative = cytotoxicity: on the % scale 0 is the no-effect control and ±100 the full control effect
# In short: (§1)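 48 h compound exposure at 37 C, 5% CO2; five-point qHTS. ATPlite luminescence readout of cell ATP.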
# SKOV3 = assay: as above; conditions: Gynecologic cancer cell panel viability, ATPlite luminescence, 48 h; series mostly up to 57.5 µM
# In short: as §1
# [1] = system: Zika virus NS2B-NS3 protease (unlinked complex); assay: Primary screen GU Rhodamine qHTS for Zika virus inhibitors: Unlinked NS2B-NS3 protease assay (AID 1347159); further: potency means the concentration at half of the fitted maximal effect; nearly all actives have a fitted effect of over 60% in size
# In short: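 Buffer 10 mM Tris-HCl pH 8.0, 0.01% Tween 20. Unlinked protease 25 nM; compound preincubation 15 min, RT, protected from light. Substrate Rhod110, 1.5 microM; ~15% conversion in 15 min.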
# [2] = system: Zika virus NS2B-NS3 protease (linked construct); assay: Primary screen NINDS Rhodamine qHTS for Zika virus inhibitors (AID 1347160); conditions: activity change, negative = inhibition: at 57.1 µM (top of the series) unless noted; further: nearly all actives have a fitted effect of over 55% in size; further: potency means the concentration at half of the fitted maximal effect
# In short: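 Aprotinin served as in-plate control. Conditions: 25 nM linked NS2B-NS3, pH 8.0 Tris buffer, titrated compounds, 15 min preincubation and 15 min reaction with 1.5 microM Rhod110 substrate at room temperature.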
# [3] = Primary qHTS for inhibitors of nuclear receptor binding SET domain protein 2 (NSD2) in an isogenic RCH-ACV NSD2 p.E1099K mutant (9B) (AID 1645876); further: nearly all actives have a fitted effect of over 70% in size; further: potency means the concentration at half of the fitted maximal effect
# [4] = Primary qHTS for inhibitors of nuclear receptor binding SET domain protein 2 (NSD2) in an RCH-ACV wild type WT cells (2C) (AID 1645877); conditions: activity change, negative = cell killing: at 44.9 µM (top of the series) unless noted; further: nearly all actives have a fitted effect of over 70% in size; further: potency means the concentration at half of the fitted maximal effect; on activity change, negative = cell killing: on the % scale 0 is the no-effect control and ±100 the full control effect
# [5] = Primary fluorescence-based thiol-reactive (MSTI) qHTS assay for identification of artifact compounds. (AID 1845221); further: potency means the concentration at half of the fitted maximal effect;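 further: thiol-reactive compounds lower the probe fluorescence signal; nearly all actives have a fitted effect of over 65% in size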
# In short: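 First, 4 uM MSTI in 2% DMSO/PBS pH 7.4 was dispensed; next, compounds were added; then plates sat 1 h at room temperature without light. Finally, emission at 598 nm was recorded.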
# [6] = qHTS of pediatric cancer cell lines to identify multiple opportunities for drug repurposing: Primary screen for BT-37 cells (AID 1347094);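 further: plate controls were DMSO for no effect and bortezomib for full effect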
# In short: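 Quantitative HTS format: each compound titrated (MIPE 11 points from 0.78 nM, NPC 8 points from 0.59 nM) onto cells plated 5 hours earlier. After 48 h at 37 degrees C, CellTiter-Glo luminescence was recorded.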
# [7] = molecular target: Cytochrome P450 2D6 (Homo sapiens) (UniProt P10635); assay: Cytochrome P450 family 2 subfamily D member 6 (CYP2D6) small molecule antagonists: luciferase biochemical (cell-free) qHTS assay (AID 1645840; active means well fitted curve in the direction sought with a large enough effect in the repeat runs; inconclusive means weak or mixed curves; inactive means no such curve, though single readings can be large; an effect the other way counts as inactive or inconclusive; further: nearly all actives have a fitted effect of over 55% in size; further: potency means the concentration at half of the fitted maximal effect; on activity change, negative = inhibition: on the % scale 0 is the no-effect control and ±100 the full control effect)
# In short: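 P450-Glo CYP2D6 system: proluciferin substrate converted by enzyme to luciferin, read by luminescence proportional to activity. Enzyme-substrate mix with compound 10 min at room temperature, then NADPH regeneration 1 h before detection reagent.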
# [8] = P-glycoprotein substrates identified in KB-8-5-11 adenocarcinoma cell line, qHTS therapeutic library screen (AID 1346987); further: nearly all actives have a fitted effect of over 65% in size; further: potency means the concentration at half of the fitted maximal effect
# In short: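 In this qHTS, P-gp-rich KB-8-5-11 cells received library compounds across a concentration range. Viability was quantified by luminescence after 72 h at 37 degree C.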
# [9] = Primary redox qHTS assay for identification of artifact compounds. (AID 1845223); conditions: Amplex Red/HRP redox cycling with DTT, fluorescence; redox activity (% of DA3003): at 53.8 µM (top of the series); further: potency means the concentration at half of the fitted maximal effect;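 on redox activity (% of DA3003): 0% = DMSO and 100% = reference compound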
# In short: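 Redox-cycling detection via DTT (250 uM final) oxidation coupled to Amplex Red (25 uM)/HRP (250 mU/mL) in HBSS. 15 min preincubation plus 30 min after DTT, room temperature. Ex/Em 525/598 nm; 4-parameter Hill fit against DMSO and 10 uM DA3003.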
# Tags describe the fitted curve by direction and shape.
# UniProt P10635, sequence (P10635 whole entry, looked up): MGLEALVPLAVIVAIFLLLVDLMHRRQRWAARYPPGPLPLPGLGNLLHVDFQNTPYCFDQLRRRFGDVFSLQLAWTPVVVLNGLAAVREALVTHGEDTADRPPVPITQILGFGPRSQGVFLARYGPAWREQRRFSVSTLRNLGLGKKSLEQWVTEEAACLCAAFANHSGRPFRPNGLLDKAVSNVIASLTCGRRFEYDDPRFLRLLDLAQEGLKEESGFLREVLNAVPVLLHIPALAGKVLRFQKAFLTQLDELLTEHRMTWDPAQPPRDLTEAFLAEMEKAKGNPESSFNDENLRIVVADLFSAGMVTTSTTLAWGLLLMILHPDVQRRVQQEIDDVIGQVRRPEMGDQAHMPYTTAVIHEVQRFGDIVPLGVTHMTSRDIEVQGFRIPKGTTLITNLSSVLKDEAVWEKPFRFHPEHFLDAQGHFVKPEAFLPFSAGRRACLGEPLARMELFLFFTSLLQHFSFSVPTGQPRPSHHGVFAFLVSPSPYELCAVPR
smiles,measurement,setting,value
OC[C@@]1(O)CO[C@H](OC[C@H]2O[C@@H](OC(CCCCc3ccc(O)cc3)CCc3ccc(O)cc3)[C@H](O)[C@@H](O)[C@@H]2O)[C@@H]1O (stereo not given in full),outcome,NIH3T3,inactive
same,Potency,PA-1,inactive
C[C@@H]1O[C@@H](O[C@@H]2[C@@H](O)[C@H](O[C@H]3[C@H](O[C@H]4CC[C@@]5(C)C(CC[C@]6(C)C5CC=C5[C@@H]7CC(C)(C)CC[C@]7(C(=O)O[C@@H]7O[C@H](CO)[C@@H](O)[C@H](O)[C@H]7O[C@@H]7O[C@@H](C)[C@H](O[C@@H]8O[C@@H](C)[C@H](O)[C@@H](O)[C@H]8O)[C@@H](O)[C@H]7O)CC[C@]56C)[C@@]4(C)CO)O[C@H](C(=O)O)[C@@H](O)[C@@H]3O)O[C@H](CO)[C@H]2O)[C@H](O)[C@H](O)[C@H]1O (stereo not given in full),max response,NIH3T3,inactive: 2.85%
same,"activity change, negative = cytotoxicity",PA-1,inactive: 2.55% [at 6.55 µM]
same,Potency,SKOV3,"inconclusive: 6.31 µM [cytotoxic, single point]"
CC1OC(OC2C(OC3C(O[C@H]4CC[C@@]5(C)C(CC[C@]6(C)C5CC=C5C7CC(C)(C)CC(O)[C@]7(C)CC[C@]56C)C4(C)C)OC(C(=O)O)C(O)C3O)OCC(O)C2O)C(O)C(O)C1O (stereo not given in full),Potency,[1],active: 7.94 µM
same,Potency,[2],"inconclusive: 4.92 µM [inhibitor, single point]"
same,outcome,[3],inactive [at 9.23 µM]
same,"activity change, negative = cell killing",[4],inactive: 4.8% [at 9.23 µM]
same,outcome,NIH3T3,inactive
CC1=C(C(=O)O)/C(=C/CO[C@@H]2O[C@H](COC(=O)/C=C/c3ccc(O)cc3)[C@@H](O)[C@H](O)[C@H]2O)C(O)C1 (stereo not given in full),Potency,[1],"inconclusive: 12.6 µM [inhibitor, full curve]"
same,Potency,[2],"inconclusive: 15.8 µM [inhibitor, partial curve]"
same,Potency,[4],inactive
same,Potency,[5],active: 1.46 µM
same,max response,NIH3T3,inconclusive: -37.8% [inhibitor]
COc1ccc(-c2csc(NC(=O)[C@H]3CCCCN3S(=O)(=O)c3ccc(C)cc3)n2)cc1,Potency,[4],"inconclusive: 20.5 µM [inhibitor, partial curve]"
same,Potency,NIH3T3,"inconclusive: 16.4 µM [inhibitor, single point]"
same,Potency,SKOV3,inactive
Nc1c[n+](N2CCOCC2)no1,Potency,[6],inactive
same,Potency,[7],inactive
same,Potency,[3],inactive
same,outcome,NIH3T3,inactive
same,Potency,SKOV3,inactive
CC[C@@H](C)[C@H](N)C(=O)N1Cc2ccccc2C1,Potency,[8],"inconclusive: 29.1 µM [inhibitor, single point]"
same,Potency,[7],active: 13.5 µM
same,Potency,[4],"inconclusive: 4.59 µM [inhibitor, partial curve, poor fit]"
same,Potency,[5],inactive
same,Potency,[9],inactive
same,max response,NIH3T3,inactive: 0.412%
C/C=C1/[C@H](O[C@@H]2O[C@H](CO)[C@@H](O)[C@H](O)[C@H]2O)OC=C(C(=O)OC)[C@H]1CC(=O)O[C@@H]1O[C@H](CO)[C@@H](O)[C@H](O)[C@H]1O,Potency,[8],inactive
same,Potency,[4],inactive
same,max response,NIH3T3,inactive: 4.1%
COC(=O)[C@@]1(c2ccc(C)cc2)C[C@H]1CN1CCC(O)(c2ccccc2)CC1,Potency,[8],inactive
same,Potency,[3],"inconclusive: 18.3 µM [inhibitor, partial curve]"
same,Potency,[4],"inconclusive: 23 µM [inhibitor, partial curve, poor fit]"
same,max response,NIH3T3,inactive: -2.42%
C=C1CCC2C(C)(C(=O)O)CCCC2(C)C1CCC(C)CC(=O)O (stereo not given),Potency,[1],"inconclusive: 44.7 µM [inhibitor, single point]"
same,Potency,[9],"inconclusive: 23.3 µM [activator, partial curve, poor fit]"
same,max response,NIH3T3,inactive: -9.77%
same,Potency,SKOV3,inactive
C/C=C/C=C/[C@@H]1O[C@](O)([C@H](CC)C(=O)NC/C=C/C=C(\C)[C@@H](OC)[C@@H](C)C2OC(/C=C/C=C/C=C(\C)C(=O)c3c(O)cc[nH]c3=O)[C@H](O)[C@@H]2O)[C@H](O)[C@H](O)C1(C)C (stereo not given in full),Potency,[8],inactive
same,Potency,[1],"inconclusive: 28.2 µM [inhibitor, single point]"
same,Potency,[3],inactive
same,Potency,[9],"inconclusive: 3.54 µM [activator, partial curve, poor fit]"
same,max response,NIH3T3,inactive: -4.29%
C=C(CO)C(=O)O[C@H]1C[C@@]23O[C@@H]2CC/C(=C/[C@H]2OC(=O)C(=C)[C@H]12)CO[C@H]3O,Potency,[3],"inconclusive: 12.7 µM [inhibitor, single point]"
same,Potency,[4],active: 8.98 µM
same,Potency,[5],"inconclusive: 13.1 µM [inhibitor, single point]"
same,max response,NIH3T3,inactive: 2.84%
same,Potency,SKOV3,"inconclusive: 22.4 µM [rising, single point]"
CC1(O)CCC2C(C(=O)O)=COC(OC3OC(CO)C(O)C(O)C3OC(=O)/C=C/c3ccc(O)cc3)C21 (stereo not given),Potency,[1],"inconclusive: 15.8 µM [inhibitor, partial curve]"
same,Potency,[2],"inconclusive: 10 µM [inhibitor, single point]"
same,Potency,[3],inactive
same,Potency,[5],active: 3.27 µM
same,outcome,NIH3T3,inactive
COc1cc(-c2cn(C3CCc4c(F)cccc4N(CC(F)(F)F)C3=O)nn2)ccc1-n1cnc(C)c1 (stereo not given),Potency,[7],active: 26.8 µM
same,Potency,[4],"inconclusive: 14.5 µM [inhibitor, partial curve, poor fit]"
same,Potency,[5],"inconclusive: 26.7 µM [inhibitor, single point]"
same,Potency,[9],inactive
same,Potency,NIH3T3,"inconclusive: 29.1 µM [inhibitor, single point]"
same,Potency,SKOV3,"inconclusive: 6.31 µM [rising, single point]"
C=C1C[C@]23C[C@@]1(O)CC[C@H]2[C@@]12C=C[C@H](O)[C@@](C)(C(=O)O1)[C@H]2[C@@H]3C(=O)O,Potency,[8],inactive
same,Potency,[2],inactive
same,max response,NIH3T3,inactive: 2.3%
same,Potency,SKOV3,inactive
